“And” between values parts separate entries of the source, which are not always exact repeats. Identical values can stand only once. Counter-ions that a name gives are not always drawn. About 620 (11%) of roughly 5,800 compounds showed activity.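 Rule for the calls: active = score above a cut-off or among the top three wells of a plate; in these data no inactive exceeds 0.85.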 This is a selection; strong and weak results do not stand in their true shares.

This test concerns primary human hepatic stellate cells (donor 1). Put plainly: scaled lipid accumulation score (0 = DMSO-like, 1 = nortriptyline-like); higher = stronger HSC inactivation (lipid re-accumulation), active = hit call of the paper. To be noted: 48 h.
Where [1] appears, read: library stock concentration: 1 mM.
[2] abbreviates: library stock concentration: 3.33 mM.
Where [3] appears, read: library stock concentration: 10 mM.
The mark [4] stands for this setting: library stock concentration: 6.3 mM.

With `C=C1C[C@@H](O)[C@H](/C=C/[C@@H](O)C(C)(C)CCCC)[C@H]1C/C=C\CCCC(=O)O` [9-deoxy-9-methylene-16,16-dimethyl Prostaglandin E2], the “scaled lipid accumulation score” value under setting [1] is inactive: ≤ 0.

`CNc1cc2c(Nc3cccc(Br)c3)ncnc2cn1`: the “scaled lipid accumulation score” value is, setting by setting: under setting [2], inactive: ≤ 0; under setting [3], inactive: 0.082.

As to `O=C1NC(=O)C(c2ccccc2[N+](=O)[O-])=C1Nc1ccc(O)c(Cl)c1`, the “scaled lipid accumulation score” value is, setting by setting: under setting [2], inactive: 0.054; under setting [3], inactive: 0.057 and inactive: 0.262 and inactive: 0.035.

As for `O=C1NC(=O)/C(=C/c2ccc3nccc(-c4ccncc4)c3c2)S1`, the “scaled lipid accumulation score” value runs as follows: (library stock concentration: 80 uM) inactive: ≤ -0.009; (library stock concentration: 400 uM) inactive: ≤ -0.009; (library stock concentration: 2 mM) inactive: ≤ -0.009; under setting [2], inactive: 0.048; under setting [3], inactive: ≤ 0 and inactive: ≤ -0.001.

As to `CCCc1ncc(C[n+]2ccccc2C)c(N)n1` [Amprolium], the “scaled lipid accumulation score” value under setting [4] was inactive: 0.006 and the “scaled lipid accumulation score” value under setting [3] is inactive: ≤ 0.

With `CCCc1ncc(C[n+]2ccccc2C)c(N)n1` [Amprolium HCl], the “scaled lipid accumulation score” value under setting [2] is inactive: ≤ 0 and the “scaled lipid accumulation score” value under setting [3] was inactive: ≤ -0.001.

For the compound `CCCc1ncc(C[n+]2ccccc2C)c(N)n1` [Amprolium hydrochloride], the “scaled lipid accumulation score” value was inactive: ≤ 0.

`CN1Cc2c(C(=O)OC(C)(C)C)ncn2-c2ccsc2C1=O`: under setting [3], the “scaled lipid accumulation score” value is inactive: 0.05.

For `O=P(O)(O)OC1C(O)C(OP(=O)(O)O)C(O)C(OP(=O)(O)O)C1O` [D-myo-Inositol-1,3,5-triphosphate (sodium salt)], under setting [1], the “scaled lipid accumulation score” value is inactive: 0.025.

On to `CCCCCCCCCCCCCCCCC/C=C/C(=O)O` [.DELTA.2-trans Eicosenoic Acid], for which the “scaled lipid accumulation score” value under setting [1] was inactive: ≤ 0.

Turning to `N#C/C(=C\c1ccc(O)c(O)c1)C(=O)Nc1ccccc1`, the “scaled lipid accumulation score” value under setting [3] was inactive: 0.037.

Consider `N#C/C(=C\c1ccc(O)c(O)c1)C(=O)Nc1ccccc1` [Tyrphostin AG 494], for which, under setting [3], the “scaled lipid accumulation score” value is inactive: ≤ 0.

`CC(C(=O)O)c1cccc(Oc2ccccc2)c1` (stereo unspecified) [Fenoprofen]: the “scaled lipid accumulation score” value is inactive: ≤ 0 (library stock concentration: 8.3 mM) and inactive: ≤ 0 under setting [3].

As for `CC(C(=O)O)c1cccc(Oc2ccccc2)c1` (stereo unspecified) [Fenoprofen calcium salt dihydrate], the “scaled lipid accumulation score” value was inactive: ≤ 0.

Turning to `CC(C(=O)O)c1cccc(Oc2ccccc2)c1` (stereo unspecified) [Fenoprofen Calcium], the “scaled lipid accumulation score” value is inactive: ≤ 0 under setting [2] and inactive: ≤ 0 under setting [3].

For the compound `O=C(O)CN(CCN(CC(=O)O)CC(=O)O)CC(=O)O.[Na+].[Na+].[Na+]` [Trisodium ethylenediamine tetracetate], the “scaled lipid accumulation score” value under setting [3] is inactive: ≤ 0.

On to `Oc1ccc(C2CNCCc3c2cc(O)c(O)c3Cl)cc1` (stereo unspecified) [Fenoldopam hydrochloride], for which the “scaled lipid accumulation score” value under setting [3] was inactive: ≤ -0.006.

Regarding `Oc1ccc(C2CNCCc3c2cc(O)c(O)c3Cl)cc1` (stereo unspecified) [Fenoldopam bromide], the “scaled lipid accumulation score” value under setting [3] was inactive: ≤ -0.07.

As for `Oc1ccc(C2CNCCc3c2cc(O)c(O)c3Cl)cc1` (stereo unspecified), the “scaled lipid accumulation score” value under setting [3] was inactive: ≤ 0.

As to `CC(=O)N[C@@H](Cc1c[nH]c2ccccc12)C(=O)O` [Acetyltryptophan], under setting [3], the “scaled lipid accumulation score” value is inactive: ≤ 0.

With `CN(C)CCCNC(=O)[C@@H]1C[C@H](CN2CCOCC2)CN(Cc2ccc3ccccc3c2)C1`, under setting [3], the “scaled lipid accumulation score” value is active: 0.993.

With `O=C1OC(c2ccc(O)cc2)(c2ccc(O)cc2)c2ccccc21` [Phenolphthalein], the “scaled lipid accumulation score” value by setting is: under setting [4], inactive: ≤ -0.001; under setting [3], inactive: ≤ 0.

Regarding `COc1cc(C)c(Sc2cnc(NC(=O)c3ccc(CNC(C)C(C)C)cc3)s2)cc1C(=O)N1CCN(C(C)=O)CC1` (stereo unspecified), the “scaled lipid accumulation score” value under setting [3] was active: 0.891.

In the case of `COCCOc1nc(-c2ccc(Cl)c(Cl)c2)n(-c2ccc(NC(=O)CCl)cc2)n1` [MI-2 (MALT1 inhibitor)], the “scaled lipid accumulation score” value runs as follows: under setting [2], inactive: 0.584; under setting [3], inactive: 0.62.

Regarding `OC[C@@H](O)[C@@H](O)[C@H](O)[C@H](O)CO` [Mannitol], the “scaled lipid accumulation score” value (library stock concentration: 11 mM) is inactive: ≤ 0.

For `OC[C@@H](O)[C@@H](O)[C@H](O)[C@H](O)CO` [D-Mannitol], the “scaled lipid accumulation score” value is, setting by setting: under setting [2], inactive: 0.012; under setting [3], inactive: ≤ 0.

For the compound `COc1cc2c(Nc3ccc(NC(=O)c4ccccc4)cc3)ncnc2cc1OCCCN1CCOCC1`, the “scaled lipid accumulation score” value is, setting by setting: under setting [2], active: 1.06; under setting [3], active: 1.11.

In the case of `C=CCc1ccc(O)c(OC)c1` [Eugenol], the “scaled lipid accumulation score” value was inactive: ≤ 0 under setting [3] and inactive: ≤ -0.001 (library stock concentration: 12.2 mM).

In the case of `C[C@H](NCc1ccc(OCc2cccc(F)c2)cc1)C(N)=O` [Safinamide Mesylate], the “scaled lipid accumulation score” value by setting is: under setting [2], inactive: ≤ 0; under setting [3], inactive: ≤ 0.

With `CN(C)CC/C=C1/c2ccccc2COc2ccccc21.Cl` [Doxepin hydrochloride], the “scaled lipid accumulation score” value under setting [4] is active: 1.34.

Take `CCn1cc(C(=O)O)c(=O)c2cc(F)c(N3CCNCC3)nc21` [Enoxacin]: the “scaled lipid accumulation score” value is, setting by setting: under setting [2], inactive: ≤ 0; (library stock concentration: 6.2 mM) inactive: ≤ 0; under setting [3], inactive: ≤ 0 and inactive: 0.209.

In the case of `CC1(C)CCC=[N+]1[O-]` [5,5-Dimethyl-1-pyrroline-N-oxide], the “scaled lipid accumulation score” value under setting [3] is inactive: ≤ -0.07.

Consider `Cl.Cl.O=C(NCCCN1CCC2(CC1)OCc1ccccc12)[C@H]1CCCN1Cc1ccccc1`, for which the “scaled lipid accumulation score” value under setting [3] is active: 0.974.

As for `CC1(C)CCC(NC(=O)[C@@H](N)CCC(=O)O)CC1`, the “scaled lipid accumulation score” value under setting [3] is inactive: ≤ -0.001.

Turning to `O=C(O)C1CCNCC1` [Isonipecotic acid], the “scaled lipid accumulation score” value under setting [3] is inactive: ≤ -0.055.

Regarding `CN(C)c1cnccn1`, the “scaled lipid accumulation score” value under setting [3] was inactive: ≤ 0.

On to `CCCCCCCC/C=C\C/C=C\C/C=C\CCCC(=O)NCCO` [Mead ethanolamide], for which the “scaled lipid accumulation score” value under setting [1] is inactive: 0.017.

For `CCCCCCCC/C=C\C/C=C\C/C=C\CCCC(=O)NCCO` [5(Z),8(Z),11(Z)-Eicosatrienoic Acid Ethanolamide], the “scaled lipid accumulation score” value under setting [1] is inactive: 0.015.

As for `C=C(C)[C@@H]1CC[C@]2(C(=O)O)CC[C@]3(C)[C@H](CC[C@@H]4[C@@]5(C)CC[C@H](O)C(C)(C)[C@@H]5CC[C@]43C)[C@@H]12` [Betulinic acid], the “scaled lipid accumulation score” value is inactive: 0.036. Further, under setting [2], the “scaled lipid accumulation score” value was inactive: ≤ 0. Besides, the “scaled lipid accumulation score” value under setting [3] was inactive: ≤ -0.001. The “scaled lipid accumulation score” value (library stock concentration: 10.9 mM) was inactive: 0.148.

In the case of `CN=c1nc(-c2ccccc2)n(-c2ccccc2)s1`, the “scaled lipid accumulation score” value under setting [3] was inactive: 0.624 and inactive: 0.215.

With `C1N2CN3CN1CN(C2)C3` [Methenamine], the “scaled lipid accumulation score” value runs as follows: under setting [2], inactive: ≤ 0; under setting [3], inactive: ≤ -0.001 and inactive: ≤ 0; (library stock concentration: 14.3 mM) inactive: ≤ 0.

`O=C(O)C1=C[C@@H](O)[C@@H](O)[C@H](O)C1` [Shikimic Acid]: the “scaled lipid accumulation score” value is, setting by setting: under setting [2], inactive: ≤ 0; under setting [3], inactive: ≤ 0.

Values taken from the supplement of paper PMC9135407.
